The source of these data is article PMC9728996.

By UniProt entry, the sequences of proteins in these tests, tags left out. Where a name states a change or a piece, a line headed by the entry shows the natural chain unless it says otherwise. Residues count along the entry.
UniProt P0CAP2: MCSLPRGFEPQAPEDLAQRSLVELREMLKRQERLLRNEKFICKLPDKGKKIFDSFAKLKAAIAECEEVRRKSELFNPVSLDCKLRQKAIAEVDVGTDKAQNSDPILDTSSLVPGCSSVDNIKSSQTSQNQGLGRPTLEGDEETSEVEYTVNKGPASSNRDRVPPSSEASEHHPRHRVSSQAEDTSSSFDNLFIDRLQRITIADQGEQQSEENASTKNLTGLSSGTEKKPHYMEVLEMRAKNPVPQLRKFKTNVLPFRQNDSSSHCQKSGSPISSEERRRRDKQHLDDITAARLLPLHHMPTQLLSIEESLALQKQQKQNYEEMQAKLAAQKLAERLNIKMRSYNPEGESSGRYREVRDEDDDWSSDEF
Flag-VN-GDOWN1(m1), truncated mutant 1-110 aa: residues 1-110 of P0CAP2
Flag-VN-GDOWN1(m2), truncated mutant 111-250 aa: residues 111-250 of P0CAP2
Flag-VN-GDOWN1(m3), truncated mutant 251-368 aa: residues 251-368 of P0CAP2
UniProt O14980: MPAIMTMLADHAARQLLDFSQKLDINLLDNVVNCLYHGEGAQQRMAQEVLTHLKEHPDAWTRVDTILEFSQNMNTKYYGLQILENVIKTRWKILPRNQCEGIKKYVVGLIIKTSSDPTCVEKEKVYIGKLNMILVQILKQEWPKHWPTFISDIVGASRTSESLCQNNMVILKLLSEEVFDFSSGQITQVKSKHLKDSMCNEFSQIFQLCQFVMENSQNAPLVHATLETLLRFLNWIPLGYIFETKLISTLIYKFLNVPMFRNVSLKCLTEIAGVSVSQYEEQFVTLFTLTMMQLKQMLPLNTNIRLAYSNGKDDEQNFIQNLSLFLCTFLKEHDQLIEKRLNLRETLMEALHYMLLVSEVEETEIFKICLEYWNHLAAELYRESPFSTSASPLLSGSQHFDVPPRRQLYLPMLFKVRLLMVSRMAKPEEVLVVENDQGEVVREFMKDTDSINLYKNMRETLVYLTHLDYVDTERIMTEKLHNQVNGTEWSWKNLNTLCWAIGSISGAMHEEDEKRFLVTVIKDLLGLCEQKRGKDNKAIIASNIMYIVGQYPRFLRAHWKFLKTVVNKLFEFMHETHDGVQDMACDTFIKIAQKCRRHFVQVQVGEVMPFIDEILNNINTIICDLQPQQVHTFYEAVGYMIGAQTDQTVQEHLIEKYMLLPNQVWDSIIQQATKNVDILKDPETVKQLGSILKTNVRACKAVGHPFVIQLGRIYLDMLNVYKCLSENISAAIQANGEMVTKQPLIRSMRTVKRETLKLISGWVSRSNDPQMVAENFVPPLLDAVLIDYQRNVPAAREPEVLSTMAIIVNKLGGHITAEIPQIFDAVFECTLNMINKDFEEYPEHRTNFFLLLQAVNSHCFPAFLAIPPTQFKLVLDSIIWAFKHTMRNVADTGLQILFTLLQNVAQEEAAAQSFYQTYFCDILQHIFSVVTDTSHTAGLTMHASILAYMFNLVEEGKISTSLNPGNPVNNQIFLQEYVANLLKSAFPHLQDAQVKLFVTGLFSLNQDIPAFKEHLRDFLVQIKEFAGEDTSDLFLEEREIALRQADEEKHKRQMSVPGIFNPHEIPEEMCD

For test [1], the target named is GDOWN1-Venus-Flag (wild type) (human) (UniProt P0CAP2). Put plainly: co-IP; lysate of HeLa cells stably expressing GDOWN1(WT or mCAS)-Venus-Flag (20 mM Tris-HCl pH 8.0, 150 mM NaCl, 1% NP40, 1% Triton X-100) on anti-Flag magnetic beads 12 hr at 4 C, five washes with lysis buffer, Western blot; IgG or parental HeLa cells as control.
For test [2], the target named is Flag-YC-GDOWN1 (human GDOWN1, wild type, BiFC fusion) (human) (UniProt P0CAP2). Nature of the test: split reporter; BiFC in HeLa cells co-transfected with one Flag-VN (Venus 1-172) and one Flag-YC (YFP 173-238) plasmid, 0.25 ug each per well; fixed 24 hr post transfection, confocal microscopy; in some panels mock or 20 nM LMB for 6 hr.
Test [3] addresses Flag-VN-GDOWN1 (human GDOWN1, wild type, BiFC fusion) (human) (UniProt P0CAP2). Described as above.
Test [4] has as its target Flag-VN-GDOWN1(m3), truncated mutant 251-368 aa (human) (UniProt P0CAP2). The description is as above.
Test [5] deals with T1, Flag-VN-zGdown1(R328A, H331A) (zebrafish Gdown1 CAS mutant) (Danio rerio) (UniProt F1Q864).
T1 sequence: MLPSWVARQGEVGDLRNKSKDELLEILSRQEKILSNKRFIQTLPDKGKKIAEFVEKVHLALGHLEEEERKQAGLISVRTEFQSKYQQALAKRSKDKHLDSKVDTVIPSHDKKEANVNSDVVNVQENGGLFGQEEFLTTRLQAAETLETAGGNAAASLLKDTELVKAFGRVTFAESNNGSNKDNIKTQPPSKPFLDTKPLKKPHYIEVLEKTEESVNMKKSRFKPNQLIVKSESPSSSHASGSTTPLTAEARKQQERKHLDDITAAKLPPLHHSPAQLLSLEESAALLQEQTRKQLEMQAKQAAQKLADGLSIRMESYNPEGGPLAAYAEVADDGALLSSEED
The test is described as above.

The target of test [6] is Flag-VN-GDOWN1(m1), truncated mutant 1-110 aa (human) (UniProt P0CAP2). The description is as above.
Test [7] addresses T2, Flag-VN-zGdown1 (wild type Gdown1 of Danio rerio) (Danio rerio) (UniProt F1Q864).
T2 sequence: T1 sequence with A328R, A331H
The description is as above.

Test [8] deals with Flag-VN-GDOWN1(m2), truncated mutant 111-250 aa (human) (UniProt P0CAP2). The test is described as above.
The target in test [9] is Flag-VN-GDOWN1 (human GDOWN1, wild type, BiFC fusion) (human) (UniProt P0CAP2). Described as above. This is another data set of the same source.
The target of test [10] is Flag-VN-GDOWN1(m11) (CAS mutant, BiFC fusion) (human) (UniProt P0CAP2). The description is as above.

Where a chain is given by its changes, count along the chain named. Where two headings read alike, the source gives them in different places. These are yes or no findings as the source states them, for the method shown. Binding seen in cells or lysates may run through a third protein. Some results given as binding are weak or reduced against the parent protein; the word gives no strength. For part of these data: Where a sequence is shown, tags or fusion partners need not be part of it.

For the molecule “CRM1 (endogenous) (from UniProt O14980 1-1071)”, in test [1], the binding entry is recorded as “binds”.
As to “Flag-VN-CRM1 (from UniProt O14980 1-1071)”, in test [2], the binding entry was “binds”.
For the molecule “Flag-YC-MED1 (from UniProt Q15648-1 1-1581)”, the binding entry in test [3] is reported as “no binding”.
Take “Flag-YC-NELF-E (from UniProt P18615-1 1-380)”: the binding result in test [4], in test [5], in [6], in [7], in test [8] and in test [3] was “binds” in each case.

B1: Flag-YC-RPRD1A (protein, UniProt Q96P16-1 1-312)
chain: MSAFSEAALEKKLSELSNSQQSVQTLSLWLIHHRKHSRPIVTVWERELRKAKPNRKLTFLYLANDVIQNSKRKGPEFTKDFAPVIVEAFKHVSSETDESCKKHLGRVLSIWEERSVYENDVLEQLKQALYGDKKPRKRTYEQIKVDENENCSSLGSPSEPPQTLDLVRALQDLENAASGDAAVHQRIASLPVEVQEVSLLDKITDKESGERLSKMVEDACMLLADYNGRLAAEIDDRKQLTRMLADFLRCQKEALAEKEHKLEEYKRKLARVSLVRKELRSRIQSLPDLSRLPNVTGSHMHLPFAGDIYSED
Turning to B1, in [9], the binding result was “binds”.

B2: Flag-YC-NUP50 (protein, UniProt Q9UKX7 1-468)
chain: MAKRNAEKELTDRNWDQEDEAEEVGTFSMASEEVLKNRAIKKAKRRNVGFESDTGGAFKGFKGLVVPSGGGRFSGFGSGAGGKPLEGLSNGNNITSAPPFASAKAAADPKVAFGSLAANGPTTLVDKVSNPKTNGDSQQPSSSGLASSKACVGNAYHKQLAALNCSVRDWIVKHVNTNPLCDLTPIFKDYEKYLANIEQQHGNSGRNSESESNKVAAETQSPSLFGSTKLQQESTFLFHGNKTEDTPDKKMEVASEKKTDPSSLGATSASFNFGKKVDSSVLGSLSSVPLTGFSFSPGNSSLFGKDTTQSKPVSSPFPTKPLEGQAEGDSGECKGGDEEENDEPPKVVVTEVKEEDAFYSKKCKLFYKKDNEFKEKGIGTLHLKPTANQKTQLLVRADTNLGNILLNVLIPPNMPCTRTGKNNVLIVCVPNPPIDEKNATMPVTMLIRVKTSEDADELHKILLEKKDA
With B2, the binding entry in test [10] is “binds”; in test [9] it was “binds weakly”.

B3: Flag-YC-RAE1 (protein, UniProt P78406 1-368)
chain: MSLFGTTSGFGTSGTSMFGSATTDNHNPMKDIEVTSSPDDSIGCLSFSPPTLPGNFLIAGSWANDVRCWEVQDSGQTIPKAQQMHTGPVLDVCWSDDGSKVFTASCDKTAKMWDLSSNQAIQIAQHDAPVKTIHWIKAPNYSCVMTGSWDKTLKFWDTRSSNPMMVLQLPERCYCADVIYPMAVVATAERGLIVYQLENQPSEFRRIESPLKHQHRCVAIFKDKQNKPTGFALGSIEGRVAIHYINPPNPAKDNFTFKCHRSNGTNTSAPQDIYAVNGIAFHPVHGTLATVGSDGRFSFWDKDARTKLKTSEQLDQPISACCFNHNGNIFAYASSYDWSKGHEFYNPQKKNYIFLRNAAEELKPRNKK
Regarding B3, in test [9], the binding entry was “binds”.

B4: Flag-YC-RPRD1B (protein, UniProt Q9NQG5 1-326)
chain: MSSFSESALEKKLSELSNSQQSVQTLSLWLIHHRKHAGPIVSVWHRELRKAKSNRKLTFLYLANDVIQNSKRKGPEFTREFESVLVDAFSHVAREADEGCKKPLERLLNIWQERSVYGGEFIQQLKLSMEDSKSPPPKATEEKKSLKRTFQQIQEEEDDDYPGSYSPQDPSAGPLLTEELIKALQDLENAASGDATVRQKIASLPQEVQDVSLLEKITDKEAAERLSKTVDEACLLLAEYNGRLAAELEDRRQLARMLVEYTQNQKDVLSEKEKKLEEYKQKLARVTQVRKELKSHIQSLPDLSLLPNVTGGLAPLPSAGDLFSTD
Turning to B4, the binding entry in [9] is given as “binds”.

B5: Flag-YC-MED26 (protein, UniProt O95402-1 1-600)
chain: MTAAPASPQQIRDRLLQAIDPQSNIRNMVAVLEVISSLEKYPITKEALEETRLGKLINDVRKKTKNEELAKRAKKLLRSWQKLIEPAHQHEAALRGLAGATGSANGGAHNCRPEVGAAGPPRSIHDLKSRNDLQRLPGQRLDRLGSRKRRGDQRDLGHPGPPPKVSKASHDPLVPNSSPLPTNGISGSPESFASSLDGSGHAGPEGSRLERDENDKHSGKIPVNAVRPHTSSPGLGKPPGPCLQPKASVLQQLDRVDETPGPPHPKGPPRCSFSPRNSRHEGSFARQQSLYAPKGSVPSPSPRPQALDATQVPSPLPLAQPSTPPVRRLELLPSAESPVCWLEQPESHQRLAGPGCKAGLSPAEPLLSRAGFSPDSSKADSDAASSGGSDSKKKKRYRPRDYTVNLDGQVAEAGVKPVRLKERKLTFDPMTRQIKPLTQKEPVRADSPVHMEQQSRTELDKQEAKASLQSPFEQTNWKELSRNEIIQSYLSRQSSLLSSSGAQTPGAHHFMSEYLKQEESTRQGARQLHVLVPQSPPTDLPGLTREVTQDDLDRIQASQWPGVNGCQDTQGNWYDWTQCISLDPHGDDGRLNILPYVCLD
Regarding B5, in test [9], the binding entry is on record as “no binding”.
